Reference: the supplement of paper PMC3334620
In all, about 33,000 sequences were measured (“E-score (-0.5 to 0.5)”: median about -0.032, highest 2% from about 0.36 on). The list shows a part of the results.

target: T1, Sko1 (UniProt Q02100); test: PBM E-score (8-mer binding enrichment) (E-score (-0.5 to 0.5)); higher = stronger / more preferred TF binding; most listed sequences are background and not binding sites; conditions: protein concentration: 200 nM; construct: GST-full length
T1 sequence: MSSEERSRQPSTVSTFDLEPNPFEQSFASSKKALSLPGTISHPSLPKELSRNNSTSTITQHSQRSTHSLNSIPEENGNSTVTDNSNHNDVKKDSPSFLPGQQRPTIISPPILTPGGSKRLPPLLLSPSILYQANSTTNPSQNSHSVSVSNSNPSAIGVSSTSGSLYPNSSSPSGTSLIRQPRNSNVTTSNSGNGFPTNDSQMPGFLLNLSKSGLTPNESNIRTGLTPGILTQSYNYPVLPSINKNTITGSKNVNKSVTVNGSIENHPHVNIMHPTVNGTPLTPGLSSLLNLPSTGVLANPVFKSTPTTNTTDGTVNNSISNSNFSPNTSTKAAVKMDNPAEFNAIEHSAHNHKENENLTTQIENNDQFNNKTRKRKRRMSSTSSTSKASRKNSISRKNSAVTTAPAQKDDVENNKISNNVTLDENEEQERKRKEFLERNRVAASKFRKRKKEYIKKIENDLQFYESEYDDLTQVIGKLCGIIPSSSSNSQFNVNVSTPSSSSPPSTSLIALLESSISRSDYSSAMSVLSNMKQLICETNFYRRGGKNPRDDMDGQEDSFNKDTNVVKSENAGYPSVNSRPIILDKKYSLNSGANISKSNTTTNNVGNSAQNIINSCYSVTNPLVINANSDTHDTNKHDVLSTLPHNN
In short: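 Full-length yeast transcription factors or their DNA-binding domains, GST-tagged and expressed with PURExpress, were applied at about 100-200 nM to universal all-10-mer Agilent arrays. These arrays had been made double-stranded by primer extension on fresh or once-stripped slides. Detection used fluorescent anti-GST, normalisation used masliner, and E-scores for ungapped eight-base words pooled with reverse complements came from the Universal PBM Analysis Suite.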

Row | Sequence | PBM E-score
1 | AGCCAGCA | -0.425
2 | TGAGTCAA | 0.11
3 | CTACTTTA | 0.111
4 | CTCGTGTC | -0.126
5 | AACGGTAC | 0.0834
6 | GCCTCAGC | -0.2
7 | AATTATGC | 0.231
8 | GAGCAGTA | -0.111
9 | CCGCCCGG | -0.122
10 | CATCTATA | 0.0404
11 | CTCTGAAA | -0.0969
12 | ATTAAGCC | -0.0361
13 | AGCGACCA | -0.0164
14 | ACTAGGAA | -0.0606
15 | CGTTAGTC | -0.0638
16 | ATCTCCCG | -0.14
17 | CGGACGTA | 0.353
18 | AATTAGGT | 0.26
19 | CCGCCGAC | -0.117
20 | GCAAATGC | -0.00289
21 | ATCGAATC | 0.103
22 | ATGGCTAA | -0.0608
23 | ATAGCTAA | -0.0626
24 | AAACGCGG | -0.00101
25 | GTTCACGA | 0.166

Row | Sequence | PBM E-score
26 | AAGATTCT | -0.132
27 | GGATGTAC | -0.0326
28 | CAGTTCTA | -0.106
29 | CTCTACAG | -0.107
30 | CATCCTCA | -0.111
31 | AATTTAAG | 0.157
32 | AATTCCAG | 0.0652
33 | CAGTGATA | 0.0608
34 | ACATGTCC | -0.093
35 | AAAAGCTT | 0.0189
36 | CAGTACAA | -0.202
37 | GTACGGGA | -0.0354
38 | AATCTCAC | -0.0325
39 | ATTTCAAG | 0.151
40 | CCATTGGG | -0.25
41 | GGCAGTAC | -0.122
42 | GTATACAA | 0.189
43 | GCGCATCC | -0.111
44 | AAGAGAGA | -0.0372
45 | GCCGGTAC | -0.00848
46 | AATGGGTG | -0.0853
47 | ATCTATGG | -0.199
48 | ATACTTGG | -0.177
49 | GGGGAGTA | -0.124
50 | GTGTCAAA | 0.0559

Row | Sequence | PBM E-score
51 | AAAGGCCG | -0.244
52 | ACGAGACA | 0.00349
53 | AAAACCAA | -0.0994
54 | ATTCACTC | -0.105
55 | ACTGTTCT | -0.0556
56 | ATCAGTCG | 0.0446
57 | CATTAACC | 0.12
58 | CCTACGTC | 0.427
59 | ATGAATTA | 0.181
60 | CATTCCCG | -0.0409
61 | GAATACAA | -0.044
62 | AGCGAAAT | 0.0712
63 | GCGAAAGA | -0.114
64 | CGTTGCGC | 0.0912
65 | GACAAAAA | 0.232
66 | ATCGGGGG | -0.343
67 | CGAAGGTC | -0.288
68 | ATTGGCTC | -0.108
69 | ACGCCCTC | -0.134
70 | GACGACCA | 0.0911
71 | AATCAGCA | 0.0708
72 | ACAACATA | 0.179
73 | AGGAAACA | -0.00892
74 | AATTCGCG | 0.162
75 | AGGATAAA | 0.0612

Row | Sequence | PBM E-score
76 | ACCAACGC | -0.133
77 | CTGATGGC | -0.0166
78 | GTATTCTA | 0.205
79 | ATTGTTAG | 0.0985
80 | TAGCTCGA | -0.192
81 | AATTTGTA | 0.0973
82 | CCTTCTGC | -0.281
83 | ACCTGCGA | -0.246
84 | AACTAACT | 0.0332
85 | ATAGTTCC | -0.0904
86 | GCCGGTAA | 0.0146
87 | CATCTCGA | -0.0148
88 | CCGGCCTC | -0.284
89 | TCAAAAGA | 0.0144
90 | GCAGAACC | -0.16
91 | CAAATTCG | 0.0823
92 | CCATCACG | 0.222
93 | AGACTTGG | -0.272
94 | GTAGTGCA | 0.0951
95 | ACACGACC | -0.0213
96 | GAACTGTA | -0.0392
97 | CTGTCAAC | -0.00385
98 | CTGCTCAC | -0.0455
99 | CAAATAGG | -0.145
100 | GGCATCAA | -0.0189

Row | Sequence | PBM E-score
101 | CAGTTTAG | -0.0712
102 | CGGGATGA | -0.00457
103 | CAAACCTC | -0.268
104 | CGTCCTGA | -0.0683
105 | CCCTCGTC | -0.0567
106 | CTCAAAAC | 0.0712
107 | ATAAGTGC | -0.0835
108 | GAATCTTA | 0.151
109 | CAAAACCA | 0.042
110 | GTCTCAAA | -0.0308
111 | GATTCACA | -0.00555
112 | AAAACCTG | -0.0505
113 | GTAGGGAA | 0.0485
114 | GTGGCTGA | -0.163
115 | ACAGCTTC | -0.00448
116 | GTCTTACA | 0.131
117 | CAAACACC | -0.0368
118 | ATTCCGGC | -0.233
119 | CAATCTGC | 0.0715
120 | CAGCGTCC | -0.0679
121 | GATGAGTA | 0.185
122 | CTCTAAGA | -0.132
123 | GACTCAAA | 0.0131
124 | CCACTTAG | -0.156
125 | CCTGCCCC | -0.321

Row | Sequence | PBM E-score
126 | AACGCTCA | -0.0197
127 | CTATTATC | 0.176
128 | AGTCCATC | -0.178
129 | TATCGGAA | -0.0384
130 | AATCCCAG | -0.126
131 | CTAGCGAC | -0.0684
132 | GTCGCTTA | -0.0835
133 | GTGCCCTA | -0.19
134 | CGTCGCGA | 0.118
135 | AACATGAC | 0.255
136 | ACCTGGCT | -0.232
137 | TCGGCTCA | -0.111
138 | GAGTACGA | 0.0447
139 | GCCATGGA | -0.11
140 | GCAGTATA | -0.139
141 | AGACTGAT | -0.0788
142 | GGTCGGTA | -0.153
143 | CGGGGGCC | -0.388
144 | CACTCTGC | 0.0367
145 | GTCCGTGA | 0.0146
146 | CGTCAAGC | 0.191
147 | CAAGAAGG | -0.0459
148 | AATGTTCA | 0.0405
149 | GTGGACCA | -0.196
150 | GATTGCCC | -0.125

Row | Sequence | PBM E-score
151 | CGTTTGTC | 0.199
152 | ACTGCTTC | -0.104
153 | CTAACCAC | 5e-05
154 | AGGACTAG | -0.0388
155 | GATGCACC | -0.14
156 | TTCAAGAA | 0.16
157 | CCGAATGC | -0.0903
158 | TCCTAGCA | -0.208
159 | GGTTGTAA | -0.0192
160 | CGGGCCGA | -0.282
161 | GCGGGGAA | -0.201
162 | CCTTCCCG | -0.222
163 | GAAGGCCC | -0.345
164 | CTGCCAAG | -0.0254
165 | AGAAAAAG | -0.145
166 | AGTCAGGA | -0.0146
167 | AGGGAAGC | -0.31
168 | TCGAGAAA | 0.145
169 | ACATAGCA | 0.0837
170 | TAGGAATA | -0.0238
171 | CTATTTAA | -0.0906
172 | ACTGCTCG | 0.0307
